Results from PubChem BioAssay (NCI).
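Compound exposure: 48 hours, 5 concentrations, 96-well plates. At the GI50, growth is halved. TGI: concentration producing complete growth inhibition.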 Square brackets hold non-standard residues; d marks the D form. Peptide text beside a SMILES is read from it. * marks the point of attachment. ξ: configuration not given here. ξD = NC(CC(=O)O)C(=O)O; Ac3c = NC1(C(=O)O)CC1; Boc = CC(C)(C)OC(=O)*; OBn = c1ccc(CO*)cc1

Tested on: NCI-H322M lung
Test: growth of human tumour cells (NCI), 48 h

Compound | TGI [µM] | GI50 [µM]
O=C(c1ccccc1)c1c(C(F)(F)F)n([O-])c2cc(Cl)c(Cl)cc2[n+]1=O | 9.09 | –
NS(=O)(=O)c1ccc(Nc2c3ccccc3nc3c(C(=O)NCCCN(CCO)CCO)cccc23)cc1 | > 100 | –
c1cc(C2CCCCC2)ccc1OCCCCCCN1CCNCC1 | 3.46 | 1.83
CC1CCc2c(sc3ncnc(N/N=C/c4ccc(Cl)c(Cl)c4)c23)C1 (stereo unspecified) | > 100 | –
CCNc1c(C(=O)N(CC)CC)c(=O)[nH]c2ncccc12 | > 100 | –
Cc1ccccc1S(=O)(=O)N1[C@H](c2ccc(Cl)cc2)C(C(=O)N[C@@H](Cc2ccccc2)C(N)=O)=C[C@@H]1C(C)(C)C | 22.9 | 10.5
O=c1[nH]cnc2c1nnn2C1OC(CO)C(O)C1O (stereo unspecified) | > 100 | 8.66
CC/C=C\C/C=C\C[C@H](O)C/C=C1/C(=O)C=C[C@H]1C/C=C\CCC(=O)OC | > 8.25 | > 8.25
O=C(NCCCCNCCCNC(=O)c1ccccc1)c1ccccc1 | > 100 | –
CN(C)/C=C/c1nnnn1-c1ccc(Cl)cc1 | 76.9 | 28.2
CC1=C(C)CC2(SC1)C(=O)c1ccccc1C2=O | > 100 | –
O=[N+]([O-])c1cc(O)c(O)cc1-c1cn2ccsc2n1 | 98.1 | 31.9
NC(c1ccccc1)(C(F)(F)F)P1(=O)OC(=O)c2ccccc2O1 (stereo unspecified) | > 100 | –
O=C(Nc1ccc(Cl)cc1)c1cc2c(cc1O)[nH]c1ccccc12 | 6.67 | 1.94
O=c1[nH]c2ccccc2nc1/C=C(\O)C(F)F | > 100 | –
CCOC(=O)c1c2c(n3ccc(NC(=O)OC(C)(C)C)cc13)C(=O)c1ncccc1C2=O | 1.68 | 0.0296
O=c1c2ccccc2n2nnc3ccc(NCCCNCCNCCCNc4ccc5nnn6c7ccccc7c(=O)c4c56)c1c32 | > 47.4 | –
C[N+](C)([O-])CCCNc1c2ccccc2nc2cccc([N+](=O)[O-])c12 | 2.79 | –
S=c1nc2[nH]c3ccc(Br)cc3c2n[nH]1 | > 100 | –
O=C(O)CNS(=O)(=O)c1ccc(NC(=O)c2ccc(F)cc2)cc1 | > 100 | –
COc1ccc(/C=C(\C(=C/c2ccc(OC)cc2)[N+](=O)[O-])[N+](=O)[O-])cc1 | 31.8 | –
COc1ccc(C[C@H](N)C(=O)N2C[C@H](CO)C[C@H](n3ccc(=O)[nH]c3=O)C2)cc1 | > 100 | –
CCOC(=O)/C(C#N)=C/c1ccc(CO)o1 | > 100 | –

Compound | TGI [µM] | GI50 [µM]
COc1ccc(Nc2ncccc2/C=C/C(=O)c2cc(OC)c(OC)c(OC)c2)cc1 | 6.74 | 2.13
C=C(C)C(=O)OC1CC2(C)OC2CC(OC(C)=O)/C(C)=C/C2OC(=O)C(=C)C21 (stereo unspecified) | 32.5 | –
COc1ccc(C(=C(I)c2ccccc2)c2ccc(OC)cc2)cc1 | > 100 | –
Cn1ccnc1C(c1nccn1C)C(C)(C)[N+](=O)[O-] | > 100 | –
COC(=O)C1(NC(=O)C(CC(=O)OCc2ccccc2)NC(=O)OC(C)(C)C)CC1 (stereo unspecified) (Boc-[ξD](OBn)-[Ac3c]-OMe) | > 100 | –
OCc1cccc(-c2ccc3ncc(-c4nc(NC5CC5)ncc4F)n3c2)c1 | 1.33 | 0.294
OCC(Cn1cncn1)(c1ccc(F)cc1F)n1cncn1 (stereo unspecified) | > 100 | –
CCOC(=O)C(=O)C1C(=O)Nc2ccccc21 (stereo unspecified) | > 100 | –
COc1ccc(S(=O)(=O)N/N=C/CN2C(=O)c3ccccc3C2=O)cc1OC | > 100 | –
COc1cc2c(c(OC)c1OC)-c1ccc(NNC(=S)N(Cc3cccc(C[N+](Cc4cccc(CNC56CC7CC(CC(C7)C5)C6)c4)(Cc4cccc(CNC56CC7CC(CC(C7)C5)C6)c4)Cc4cccc(CN(C(=S)NNc5ccc6c(cc5=O)[C@@H](NC(C)=O)CCc5cc(OC)c(OC)c(OC)c5-6)C56CC7CC(CC(C7)C5)C6)c4)c3)C34CC5CC(CC(C5)C3)C4)c(=O)cc1[C@@H](NC(C)=O)CC2 (stereo partly specified) | 7.02 | 2.57
O=C(NC1(C(=O)NNc2nnc(-c3ccccc3)c(-c3ccccc3)n2)C(c2ccccc2)C(c2ccccc2)=NN1c1ccccc1)c1ccccc1 (stereo unspecified) | > 100 | –
CN1C/C(=C\c2ccc(Cl)cc2)C(=O)/C(=C/c2ccc(Cl)cc2)C1 | > 100 | –
COc1ccc(-c2nsc3c2NC(=O)CC3c2ccc3c(c2)OCO3)cc1 (stereo unspecified) | > 100 | 15.8
C=C1C(=O)O[C@H]2[C@H]1CC/C(CNC(=O)/C=C/c1cccc(OC)c1)=C\CC[C@@]1(C)O[C@@H]21 | 22.1 | 10.3
O=C(OCCN1CCCCC1)C(c1ccccc1)C1(O)CCSCC1 (stereo unspecified) | > 100 | –
COC(=O)c1ccccc1C#CCCCOS(C)(=O)=O | > 10 | –
Nc1c(C(=O)c2cccc(-c3ccc[n+]([O-])c3)c2)cnn1-c1ccc(F)cc1F | > 25 | > 25
Cc1cc(=O)n2nc(CSc3nnc(N)s3)sc2n1 | > 100 | –
CSc1nc(NC2OCC(O)C(O)C2O)c(N)c(=O)n1C (stereo unspecified) | > 100 | –
Cn1cc(NC(=O)c2cc(NC(=O)Nc3cc(C(=O)Nc4cc(C(=O)NCCC(=N)N)n(C)c4)n(C)c3)cn2C)cc1C(=O)NCCC(=N)N | > 100 | –
COc1cccc2c1C1(O)C2CCCC12OCCCO2 (stereo unspecified) | > 100 | –
CCN(CC)c1ccc(N=C2C=C(C(=O)Nc3ccc(S(C)(=O)=O)cc3)C(=O)c3ccccc32)c(C)c1 | > 100 | > 100
CSc1ccc(-c2cc(-c3ccc(NC(=O)CCCN4CCCC4)cc3)nc(-c3ccc(NC(=O)CCCN4CCCC4)cc3)c2)cc1 | 16.6 | 4.28

Compound | TGI [µM] | GI50 [µM]
CCON=C1C(C)(C)C(C)(C)C(C)(C)C1(C)C | > 100 | –
CCOC(=O)C(NC(=O)CC(C)C)(Nc1ccc(C(F)(F)F)cc1)C(F)(F)F (stereo unspecified) | > 100 | –
C=CC(C)(C)N[C@@H](C(=O)N1CCC[C@H]1c1nc(-c2nc(C(=O)OCC=C(C)C)c(C)o2)c(C)o1)C(C)C | 70 | –
C=CCC12CCC(=O)C=C1CCC1(C2)OCCO1 (stereo unspecified) | > 100 | –
COC(=O)Nc1nc2ccc(Oc3ccc(NC(=O)Nc4cccc(Br)c4)cc3)cc2[nH]1 | > 25 | 5.23
C[C@@H]1COCCN1c1nc(-c2cnc(N)cc2C(F)F)nc(N2[C@H](C)COC[C@@H]2C)n1 | 14.1 | 0.399
CN(C)C(=S)NN=C(c1ccccn1)c1ccccn1 | 22 | < 0.0123
CCCCCCCCCCCCCCCC(=O)OCC1OC(n2cnc3c(=S)nc(N)[nH]c32)C(OC(=O)CCCCCCCCCCCCCCC)C1OC(=O)CCCCCCCCCCCCCCC (stereo unspecified) | > 50 | > 33.6
O=c1[nH]c(=O)n(C2CC(O)C(CO)O2)cc1C(OCC(F)(F)F)OCC(F)(F)F (stereo unspecified) | > 100 | –
COc1ccccc1/C=C1\CCC(CNc2ccc(Cl)cc2)C1=O (stereo unspecified) | 27.6 | –
O=C1CCCC2=C1C(c1ccc3c(c1)OCO3)Nc1ccc3ccccc3c12 (stereo unspecified) | > 100 | –
Nc1ccc(N=Nc2ccccc2)c(N)n1 | > 100 | 37.7
CCCCCCOc1ccc(/C=N/NC(N)=S)cc1 | > 100 | 34.6
OCC(O)C1OC2CC1Nc1ccccc1N2 (stereo unspecified) | > 100 | –
[N-]=[N+]=NC1CC(n2cc(COCC(F)(F)F)c(=O)[nH]c2=O)OC1CO (stereo unspecified) | > 100 | –
COc1cc([C@@H]2c3cc4c(cc3C(Br)[C@H]3COC(=O)[C@H]23)OCO4)cc(OC)c1OC (stereo partly specified) | > 100 | 0.552
O=C1O[C@H](C(Cl)(Cl)Cl)N2CCCC12 (stereo partly specified) | > 100 | –
O=C1CCC2(CC1CCSc1ccccc1)OCCO2 (stereo unspecified) | > 100 | –
Cc1ccc(C)c(COCCOCn2cc(Br)c(N)nc2=O)c1 | > 100 | –
CO/C(=N\N=C\c1ccc(Cl)cc1Cl)c1ccncc1 | > 10 | –
Cc1ccc2c[c]1[Hg][CH2]COS2(=O)=O | > 100 | > 100
